Assay results taken from publication PMC4336329 (PLoS ONE, 2015).
About 2,200 (0.71%) of roughly 310,000 compounds showed an effect of 50% or more. The effect is printed as a negative number. Some of the results follow.

biological target: human ether-à-go-go-related gene (hERG) potassium channel (human, UniProt Q12809); test: primary screen, population patch clamp on CHO cells stably expressing hERG
Sequence (Q12809 whole entry, looked up): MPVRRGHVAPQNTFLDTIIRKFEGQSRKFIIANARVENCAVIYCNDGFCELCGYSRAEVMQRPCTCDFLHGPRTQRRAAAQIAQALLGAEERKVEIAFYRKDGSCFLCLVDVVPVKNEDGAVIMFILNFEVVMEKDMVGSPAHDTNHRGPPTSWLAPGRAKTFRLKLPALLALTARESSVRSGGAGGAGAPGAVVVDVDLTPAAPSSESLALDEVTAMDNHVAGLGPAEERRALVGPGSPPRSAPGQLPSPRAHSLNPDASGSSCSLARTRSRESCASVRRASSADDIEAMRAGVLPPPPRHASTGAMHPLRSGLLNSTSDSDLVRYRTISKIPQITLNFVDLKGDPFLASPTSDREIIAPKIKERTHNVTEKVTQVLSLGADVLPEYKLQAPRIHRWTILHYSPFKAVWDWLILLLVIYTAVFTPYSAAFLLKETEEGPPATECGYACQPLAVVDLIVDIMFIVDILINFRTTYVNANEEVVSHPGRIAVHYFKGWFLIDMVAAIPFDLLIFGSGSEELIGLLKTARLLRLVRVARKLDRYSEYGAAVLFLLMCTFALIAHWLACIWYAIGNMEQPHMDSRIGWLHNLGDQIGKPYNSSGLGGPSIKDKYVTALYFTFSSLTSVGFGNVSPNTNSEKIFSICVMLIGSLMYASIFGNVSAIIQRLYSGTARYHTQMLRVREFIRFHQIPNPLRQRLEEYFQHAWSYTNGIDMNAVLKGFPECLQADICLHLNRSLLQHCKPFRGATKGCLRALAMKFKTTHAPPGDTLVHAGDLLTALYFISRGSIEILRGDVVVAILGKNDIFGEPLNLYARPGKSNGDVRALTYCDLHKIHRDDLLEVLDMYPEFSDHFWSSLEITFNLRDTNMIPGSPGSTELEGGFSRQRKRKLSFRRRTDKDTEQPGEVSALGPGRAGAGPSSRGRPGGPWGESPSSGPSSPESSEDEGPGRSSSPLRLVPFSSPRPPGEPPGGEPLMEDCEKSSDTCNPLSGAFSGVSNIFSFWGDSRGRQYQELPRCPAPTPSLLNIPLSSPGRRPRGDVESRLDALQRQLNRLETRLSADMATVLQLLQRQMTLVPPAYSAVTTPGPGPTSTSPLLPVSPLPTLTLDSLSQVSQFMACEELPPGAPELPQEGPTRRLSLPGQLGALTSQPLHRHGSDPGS

| Structure (SMILES) | hERG current change (%, negative = inhibition) at 1uM |
| --- | --- |
| O=C(NC1CC2CCCC(C1)N2C(=O)Nc1ccccc1)c1ccncc1 (centres unmarked) | 0.0447% |
| CCOC(=O)c1ccc2ncc(C(=O)OCC)c(NCCCN3CCOCC3)c2c1 | -13.9% |
| O=C1c2ccccc2-c2cccc(C(=O)N3CCN(C(=O)c4ccccc4)CC3)c21 | 3.88% |
| CCCN(CC(=O)Nc1ccccc1C)C(=O)c1ccc2c(c1)S(=O)(=O)N=C1CCCCCN12 | 17.6% |
| CCOc1cccc(CN2CCCC(N3CCN(c4cccc(Cl)c4)CC3)C2)c1O (centres unmarked) | 2.48% |
| COC(=O)c1ccc(NC(=S)Nc2ccccc2)cc1 | 6.03% |
| CCOC(=O)C1=C(CS(=O)(=O)c2ccccc2)NC(=O)NC1c1ccc(O)c(OC)c1 (centres unmarked) | 12.5% |
| COc1ccc(C(C)=O)cc1CN1CC=C(c2ccccc2)CC1 | 0.006% |
| Cc1cc(C(=O)Nc2c(C)n(C)n(-c3ccccc3)c2=O)on1 | 15.2% |
| Cc1nc2c3cc(F)ccc3n(Cc3ccccc3)c2s1 | 15.6% |
| CCC(C(=O)N(C(C)C)C(C)C)c1ccccc1 (centres unmarked) | 10.3% |
| O=C(COC(=O)c1cnccn1)Nc1cccc2ccccc12 | -3.66% |
| COc1cc2c(cc1OC)C(c1ccc(C)o1)CC(=O)N2 (centres unmarked) | -0.622% |
| CCOc1ccccc1CN1CCN(Cc2[nH]c3ccccc3c2C)CC1CCO (centres unmarked) | -13% |
| CC(C(=O)Nc1sc2c(c1C#N)CCCCC2)N1C(=O)c2ccccc2C1=O (centres unmarked) | 6.27% |
| O=C1C=C(NC2CCCC2)CC(c2ccccc2)C1 (centres unmarked) | 18.3% |
| COc1cc2c3nc4n(c(=O)c3n(CC(=O)NCC3CCCO3)c2cc1OC)CCS4 (centres unmarked) | 17.3% |
| CC(=O)NC(CC(=O)N(Cc1ccccc1)c1cccc(C)c1)c1ccccc1 (centres unmarked) | 9.41% |
| Cc1cccc(NC(=O)CCCNC(=O)c2ccc(Cl)cc2)n1 | 13.7% |
| C=CCNC(=O)COc1ccc(Oc2ccccc2)cc1 | 2.66% |
| NC(=O)C1(N2CCCCC2)CCN(C(=O)c2cccn3c(=O)c4cc(Cl)ccc4nc23)CC1 | 4.38% |
| CCOc1ccc(S(=O)(=O)N(C)CC(=O)N2CCCC2)cc1 | 21.7% |

| Structure (SMILES) | hERG current change (%, negative = inhibition) at 1uM |
| --- | --- |
| CCC(CC)NC(=O)c1ccc(NS(=O)(=O)c2ccc3[nH]c(=O)[nH]c3c2)cc1 | 14.4% |
| Cc1ccc(C#N)c(SCc2ccccc2[N+](=O)[O-])n1 | -0.479% |
| CC(=O)N/N=C/c1cc(C(C)C)cc(/C=N/NC(C)=O)c1O | 16.5% |
| CCN1CCN(C(=O)c2cc3cc4ccc(OC)cc4nc3s2)CC1 | 8.74% |
| COc1ccc(NC(C)C(=O)N/N=C/c2ccccc2OCc2ccc(Br)cc2)cc1 (centres unmarked) | 5.73% |
| COc1ccc(C(CNC(=O)COc2ccccc2OC)N2CCCCC2)cc1 (centres unmarked) | 4.66% |
| Cc1cccc(NC(=O)c2cc(-c3c(C)cc(C)cc3O)n[nH]2)c1 | 16.6% |
| CC1=C(C)CC(C(=O)NNC(=O)c2csc(C)c2C)C(C(=O)O)C1 (centres unmarked) | 12.8% |
| CCOc1ccc(Br)cc1C(=O)N/N=C/c1ccccn1 | 0.583% |
| O=C(CC1C(=O)NCCN1CC1CCCCC1)NCc1cc(F)ccc1F (centres unmarked) | 10.2% |
| O=C(C1=NN[C@@H]2C(=O)N(c3ccccc3C(F)(F)F)C(=O)[C@H]12)C(c1ccccc1)c1ccccc1 | 8.32% |
| CCNc1nc(Cl)nc(N(NC(C)=O)C(C)CC)n1 (centres unmarked) | 12.4% |
| COc1ccc(NC(=O)Cc2c(C(=O)O)n(C)c3ccccc23)cc1OC | 13.7% |
| Cc1cccc(NC(=O)c2ccc3nc(N4CCOCC4)sc3c2)c1C | -5.59% |
| O=C(NCc1nnc(SCC(=O)N2CCN(c3ccccc3)CC2)o1)c1c(F)cccc1F | 14.7% |
| COC(=O)CNC(=O)CNC(=O)c1nn(-c2ccc(OC)c(Cl)c2)c(=O)c2ccccc12 | 14.6% |
| O=C(/C=C/c1ccc(Cl)c(Cl)c1)N1CCc2ccccc21 | -2.84% |
| CC(C)CNC(=S)NC(=O)c1ccc(F)cc1 | 6.66% |
| COc1ccc(-c2noc(C(C)NC(=O)c3ccco3)n2)cc1OC (centres unmarked) | 11.1% |
| C=CCn1c(C)cc(C(=O)CSc2ccc(NC(C)=O)cc2)c1C | 6.47% |
| Cc1cccc(Nc2nc(C)nc3c2oc2ccccc23)c1.Cl | 5.38% |
| O=C(Nc1ccccc1)N(Cc1ccccc1)C1=NCCS1 | 8.04% |
